Out of some 110,000 compounds screened, about 230 (0.21%) showed an effect of 50% or more. Some of the results follow.
The compounds below were run against DPAP1 (Plasmodium falciparum, UniProt Q8IIJ9) (assay: primary screen, percent inhibition; read by cleavage of a fluorogenic dipeptide substrate; higher = more effect of the substance).
Design: species or system P. falciparum D10 trophozoite lysates; single well
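Note: 30 min substrate incubation versus DMSO and 10 µM JCP410 controls.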

Sequence of DPAP1 (Q8IIJ9 whole entry, looked up): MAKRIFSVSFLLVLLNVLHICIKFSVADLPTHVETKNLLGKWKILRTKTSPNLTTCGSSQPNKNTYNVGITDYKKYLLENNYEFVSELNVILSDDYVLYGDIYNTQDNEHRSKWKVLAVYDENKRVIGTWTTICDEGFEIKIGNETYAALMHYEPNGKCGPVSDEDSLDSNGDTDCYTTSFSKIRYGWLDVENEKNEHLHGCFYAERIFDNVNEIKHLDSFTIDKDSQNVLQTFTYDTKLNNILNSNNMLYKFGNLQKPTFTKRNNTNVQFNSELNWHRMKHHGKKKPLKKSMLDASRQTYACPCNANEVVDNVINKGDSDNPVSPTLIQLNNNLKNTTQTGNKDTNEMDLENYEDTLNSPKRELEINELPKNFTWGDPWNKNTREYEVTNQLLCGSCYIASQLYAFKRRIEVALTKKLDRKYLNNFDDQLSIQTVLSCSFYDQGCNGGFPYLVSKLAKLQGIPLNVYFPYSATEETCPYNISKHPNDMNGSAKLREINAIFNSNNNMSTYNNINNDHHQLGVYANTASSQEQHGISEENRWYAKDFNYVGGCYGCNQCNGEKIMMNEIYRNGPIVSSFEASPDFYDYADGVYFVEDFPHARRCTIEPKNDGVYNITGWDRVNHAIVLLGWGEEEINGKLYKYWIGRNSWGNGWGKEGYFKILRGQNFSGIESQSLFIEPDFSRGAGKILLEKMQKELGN

Point of comparison: COc1ccc(C(=O)/C=C/c2ccco2)cc1, “% Inhibition @ 10 uM” value 60.2%. Against it:
- O=C(Nc1cccc(NC(=O)c2nc[nH]n2)c1)c1cccc(Cl)c1 — lower, 4.94%
- CC/N=c1\sc(C(=O)OC)cc(=O)n1CC — lower, -7.13%
- C=CCn1c(NCc2ccccc2C)nc2ccccc21 — lower, 3.24%
- NS(=O)(=O)c1ccc(CCNS(=O)(=O)c2cc(Cl)ccc2Cl)cc1 — lower, -12.8%
- Cc1ccc(-n2nc3c([n+]2[O-])CCc2c-3no[n+]2[O-])cc1 — lower, 1.37%
- COc1ccc(OC)c(NC(=O)C(C)Oc2ccccc2)c1 (centres unmarked) — lower, 0.992%
- O=C(NC1CCCCCC1)c1ccccc1[N+](=O)[O-] — lower, -6.35%
- COc1ccc(Cl)cc1N(CC(=O)N1CCCCCC1)S(=O)(=O)c1ccc(C)cc1 — lower, -5.67%
- CCC(=O)C1=C(NCCC(=O)O)CC(c2ccccc2)CC1=O (centres unmarked) — lower, -6.28%
- CN(CC(=O)NC1CCCCC1)S(=O)(=O)c1cccc2cccnc12 — lower, 0.981%
- CCn1c(C)cc(/C=C2\NC(=O)N(Cc3ccccc3)C2=O)c1C — lower, -3.04%
- CCOC(=O)c1cc(S(=O)(=O)NCCc2ccccc2)cn1C — lower, 0.655%
- CC(C)(C)C(/C=C\c1ccc(Cl)cc1Cl)n1nnnc1C1(N2CCOCC2)CCCC1 (centres unmarked) — lower, -3.92%
- Cc1ccc(Cn2c(SCC(=O)NCC3CCCO3)nc3ccsc3c2=O)cc1 (centres unmarked) — lower, 0.4%
- COc1cc(/C=C2\N=C(SC)SC2=O)cc(OC)c1OC — lower, -0.85%
- COc1cc(C2C(C#N)=C(N)OC3=C2C(=O)CC(C)(C)C3)ccc1OCC(=O)Nc1ccc(C)cc1 (centres unmarked) — lower, 7.69%
- CCCn1c2ccccc2n2cc(-c3ccc(-c4ccccc4)cc3)nc12 — lower, 9.37%
- COc1cccc2cc(C(C)=O)c(=O)oc12 — lower, -4.04%
- COc1ccc(N)cc1NC(=O)c1ccc(Cl)cc1Cl — lower, 5.24%
- Cc1cccc(CN2CCN(CCO)CC2)c1 — lower, -3.04%
- CCOc1ccccc1/C=C(\C#N)c1nc(-c2cc3ccccc3oc2=O)cs1 — lower, -5.94%
- COc1cc(C2CC(=O)NC3=C2C(=O)CC(C)(C)C3)cc(Cl)c1O (centres unmarked) — lower, -4.53%
- CC(=O)C(CCc1ccccc1)NC(=O)[C@H](CC(C)C)NC(=O)OCc1ccccc1 (some centres unmarked) — lower, -7.36%
- CN1CCCN(Cc2ccccc2Cl)CC1 — lower, 1.48%
- CC1CCC(NC(=O)C2CCN(C(=O)c3sccc3-n3cccc3)CC2)CC1 (centres unmarked) — lower, 1.72%
- C=CCn1c(SCC(=O)N2CCCCCC2)nc2scc(-c3ccc(C)o3)c2c1=O — lower, 0.722%
- COC(=O)c1ccc(/C=c2\sc3nc(=O)c(Cc4ccccc4)nn3c2=O)cc1 — lower, -5.62%
- Cc1ccccc1-n1c(SCC(=O)NCc2ccccc2)nc2nncc-2c1O — lower, 2.06%
- N#CC1=C(N)Oc2[nH]nc(C34CC5CC(CC(C5)C3)C4)c2C1c1ccc(O)cc1 (centres unmarked) — lower, 1.43%
- Cc1ccc(S(=O)(=O)N(CC(=O)N2CCN(Cc3ccccc3)CC2)c2ccccc2)cc1 — lower, 3.74%
- CC(C)COc1ccc(/C=C2\SC(=O)N(CC(=O)N3CCOCC3)C2=O)cc1 — lower, -17%
- CCOc1cc(/C=C2/SC(=O)N(CC(=O)Nc3cccc(C)c3)C2=O)ccc1O — lower, -3.12%
- CCOC(=O)c1sc2c(c1NC(=O)c1ccccc1C)CCCC2 — lower, -5.36%
- CCN1CCCC1CNC(=O)c1nnc(Cc2cc(OC)c(OC)c(OC)c2)o1 (centres unmarked) — lower, 3%
- CCN1/C(=C2/SC(=S)N(C3CCCCC3)C2=O)C=Cc2ccccc21 — lower, -1.77%
- COc1cc(-c2[nH]nc3c2C(c2cccc(Br)c2)C(C#N)=C(N)O3)cc(OC)c1OC (centres unmarked) — lower, -2.89%
- O=C(N[C@@H](CC1CCCCC1)C(=O)N[C@@H](CCc1ccccc1)C(=O)c1nc2ccccc2o1)c1c[nH]cn1 — lower, -3.49%
- CC1CN(C(=O)c2ccc(COc3ccccc3Cl)cc2)CC(C)O1 (centres unmarked) — lower, -2.74%
- CCc1cc2c(cc3c(=O)n(CCCC(=O)NCc4ccc(OC(C)C)cc4)ncn32)s1 — lower, 4.84%
- CC(C)c1ccc(NC(=O)c2cccs2)cc1 — lower, 3.54%
- Oc1cc(Nc2cccc(Cl)c2)nc(O)n1 — lower, 0.162%
- O=C(O)c1ccc(NC(=O)c2csc3c2CCCC3)cc1 — lower, 1.34%
- CCN(CC)CCOc1ccc(Cl)c(C)c1 — lower, -0.711%
- FC(F)(F)C1=CC(c2cccs2)=NCCN1 — lower, -3.92%
- Cc1ccc(CCNC(=O)c2nnc(-c3ccc4c(c3)OCO4)o2)cc1 — lower, -2.88%
- COc1cc(C(=O)N/C(=C/c2ccc(F)cc2)C(=O)NCCC(=O)O)cc(OC)c1OC — lower, 20.8%
- CCN1CCN(C(c2cccs2)C(C)NC(=O)C(=O)NCc2cccnc2)CC1 (centres unmarked) — lower, 3.96%
- COCCCNC(=O)c1ccc(CS(=O)Cc2ccc(Cl)cc2)o1 (centres unmarked) — lower, 7.13%
- O=C(CCN1CCCCC1)NCC1OCCc2ccccc21 (centres unmarked) — lower, -1.06%
- CCCCC(C(=O)Nc1ccc(F)cc1)N1C(=O)c2ccccc2C1=O (centres unmarked) — lower, 1.82%
- O=C(COCc1cc(-c2ccc(F)cc2)on1)NCCCn1ccnc1 — lower, -5.84%
- CC(C)Oc1ccc(-c2[nH]c3c(C#N)cnn3c2NC2CCCC2)cc1 — lower, 9.74%
- CCC(C)N1C(=O)CN(C2CCC(C)CC2)C(=O)C1c1ccc(C)cc1 (centres unmarked) — lower, 4.47%
- CC1=C(C(=O)Nc2ccc(F)cc2)C(c2cccc(Cl)c2Cl)NC(S)=N1 (centres unmarked) — lower, -3.63%
- COc1ccc(-c2cc(C(F)(F)F)n3nc(C(=O)NCc4ccco4)cc3n2)cc1OC — lower, 1.12%
- CC(C)c1ccc(CNC(=O)c2ccc3ccccc3n2)cc1 — lower, -1.55%
- CCCc1n(CC(O)COc2ccc(OC)cc2)c2ccccc2[n+]1C (centres unmarked) — lower, -7.9%
- CC(=O)Nc1ccc(C2=NN(c3ccccc3)C(c3ccccc3)C2)cc1 (centres unmarked) — lower, 5.48%
- O=C(O)C1CCN(C2CC(=O)N(c3ccc(Cl)cc3)C2=O)CC1 (centres unmarked) — lower, 5.09%
- Cc1ccc(-c2nnc(C3CCN(S(=O)(=O)c4ccc5[nH]c(-c6ccccc6)nc5c4)CC3)o2)cc1 — lower, 12.7%
- OCC1CCCCN1CC(O)COc1ccc(C23CC4CC(CC(C4)C2)C3)cc1 (centres unmarked) — lower, -1.05%
- O=C(Nc1c2c(nn1-c1cccc(Cl)c1)CS(=O)(=O)C2)C12CC3CC(CC(C3)C1)C2 — lower, 9.36%
- COc1ccc(C(=O)c2sc3nc(C)c(Cl)c(C)c3c2N)cc1 — lower, -0.736%
- O=C(CN1CCCC1)N1c2ccccc2Sc2ccc(Cl)cc21 — lower, 0.132%
- O=C1c2[nH]nc(-c3ccccc3O)c2C(c2ccccc2F)N1CCCO (centres unmarked) — lower, -3.12%
- CCCCN(C)C(=O)C1CCCN(c2nnc(C)c3c(C)n(-c4ccccc4)nc23)C1 (centres unmarked) — lower, 3.91%
- COc1cccc(C(=O)Nc2ccc(NC(=O)c3ccco3)cc2)c1 — lower, 3.25%
- O=C(NCCCO)C(=O)NCc1ccncc1 — lower, -13.4%
- O=C(c1oc(=O)c2ccccc2c1-c1ccccc1)N1CCCN(Cc2ccc(F)cc2)C1 — lower, -4.74%
- CN(C)CCNC(=O)C12CC3CC(C)(CC(C)(C3)C1)C2 — lower, 1.33%
- CCOc1cc(CNC(=O)c2cnc(SC)nc2-c2ccccc2)cc(OCC)c1OCC — lower, -1.95%
- CC1CCCN(Cc2c(O)ccc3c(=O)c(-c4ccc5c(c4)OCCO5)coc23)C1 (centres unmarked) — lower, -3.65%
- FC(F)(F)c1ccc(CN2CCN(c3cccc(Cl)c3)CC2)cc1 — lower, 2.33%
- CCOC(=O)c1ccccc1NC(=O)c1cc(OC)cc(OC)c1 — lower, -4.59%
- Cc1cccc(C(=O)Nc2ccc(O)cc2)c1 — lower, -9.31%
- COc1cccc2c(O)c(NC(=O)NCc3ccc(OC(F)(F)F)cc3)cnc12 — lower, -3.08%
- CC1CN(C2C3CC4CC(C3)CC2C4)CC(C)O1 (centres unmarked) — lower, -4.14%
- CCc1cc(=O)oc2c(C)c3c(cc12)CN(Cc1ccccc1)CO3 — lower, -6.29%
- CC1(C)CC(=O)C2=C(C1)OC(N)=C(C#N)C2c1ccc(COc2ccccc2Br)o1 (centres unmarked) — lower, 2.99%
- Cc1ccc(-c2csc(/C(C#N)=C/c3ccco3)n2)cc1 — lower, 1.44%
- Cc1ccc(C)n1-c1ccccc1CO — lower, -5.14%
- Cc1cc(C)c(C(=O)/C=C/c2cccs2)c(O)n1 — lower, 0.605%
- CSc1ccc(S(=O)(=O)N(CC(=O)N2CCN(C)CC2)c2ccc(C)cc2)cc1 — lower, -1.64%
- CC(C)C(=O)Nc1cccc(C(=O)Nc2ccccc2C#N)c1 — lower, -1.74%
- Cc1sc2ncn(CC(=O)NCCCC(=O)N3CCN(c4ccccn4)CC3)c(=O)c2c1C — lower, -6.13%
- Fc1ccccc1N1CCN(CCc2ccccc2)CC1 — lower, 1.38%
- O=C(O)c1ccc(Cn2nc(N3CCCCC3)ccc2=O)o1 — lower, -2.83%
- COc1ccc(-c2nc3cc(C)ccn3c2NC(=O)c2ccccc2C)cc1 — lower, -1.29%
- O=C(NCC12CC3CC(C1)CC(CNC(=O)c1ccc(F)cc1)(C3)C2)c1ccc(F)cc1 — lower, 2.7%
- Cc1nc2ccc(S(=O)(=O)NCC(=O)NCCCc3ccccc3)cc2s1 — lower, 0.747%
- FC(F)(F)c1nnc2sc(COc3ccccc3)nn12 — lower, 0.635%
- O=C(O)c1ccccc1C(=O)OCc1ccc(F)cc1F — lower, -3.21%
- CC(C)(C)c1ccc(S(=O)(=O)c2ccccc2)cc1 — lower, 3.32%
- CN(CCNC(=O)c1ccc(CS(=O)(=O)c2ccc(Br)cc2)o1)C1CCCCC1 — lower, 14.3%
- O=C(Nc1nnc(/N=C/c2ccccc2)s1)c1cc(Cl)cc(Cl)c1 — lower, 18.1%
- CCN(Cc1ccccc1)C(=O)CSc1nncn2c1cc1oc(C)cc12 — lower, -10.9%
- Cc1cc(C)c(S(=O)(=O)Nc2ccc(S(=O)(=O)N3CCC(C)CC3)cc2)c(C)c1 — lower, 2.48%
